Reference: the supplement of paper PMC4967469
By IC50 is meant the dose at which the fit gives 50% viability; a limit (>, <) means that the fit lies beyond the doses tested. AUC is the area under the same curve over the 256-fold range up to the top dose, as a fraction; values near 1 show little effect. For some of these results: A top dose marked as inferred comes from the curve model; the source does not state it. For some of these results: Drugs with an entry number were screened twice under separate entries, and the two screens often disagree.

What was measured:
Test in all cases: Viability of human cancer cell lines after 72 h of drug (GDSC screen)
[1] = compound: CC[C@]1(O)C[C@@H]2CN(CCc3c([nH]c4ccccc34)[C@@](C(=O)OC)(c3cc4c(cc3OC)N(C)[C@H]3[C@@](O)(C(=O)OC)[C@H](OC(C)=O)[C@]5(CC)C=CCN6CC[C@]43[C@@H]65)C2)C1 [Vinblastine]; conditions: top dose 0.1 µM; top dose inferred
Protocol: (§1)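 Human cancer cell lines in 384-well plates, medium with 10% serum, drug for 72 h over a 256-fold dose range (nine 2-fold or five 4-fold steps up to the top dose). Adherent lines were fixed and stained with the nucleic acid dye Syto60, suspension lines read with resazurin; signal relative to control wells, capped at 0 and 100%. One two-parameter sigmoid per drug and line, fitted in a mixed model over all curves with the slope shared within a line.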

[2] = compound: CC1(C)CC(=O)c2c(C(F)(F)F)nn(-c3ccc(C(N)=O)c(N[C@H]4CC[C@H](O)CC4)c3)c2C1 [SNX-2112]; conditions: top dose 2.56 µM
Protocol: as §1

[3] = compound: CN(C)C/C=C/C(=O)Nc1cc2c(Nc3ccc(F)c(Cl)c3)ncnc2cc1O[C@H]1CCOC1 [Afatinib]
Protocol: as §1

[4] = compound: O=C(NC1CC1)c1cccc(-c2ccc3c(NC(=O)C4CC4)n[nH]c3c2)c1 [XMD13-2]; conditions: top dose 10.24 µM; top dose inferred
Protocol: as §1

[5] = compound: CN(c1ncccc1CNc1nc(Nc2ccc3c(c2)CC(=O)N3)ncc1C(F)(F)F)S(C)(=O)=O [PF-562271]; conditions: top dose 2.56 µM; top dose inferred
Protocol: as §1

[6] = top dose 0.5 µM, screen: GDSC drug entry 1032
[7] = top dose 10 µM, screen: GDSC drug entry 1377, top dose inferred

Cell Line | AUC [1] | IC50 [1] [µM] | AUC [2] | IC50 [2] [µM] | AUC [3, 6] | IC50 [3, 6] [µM] | AUC [3, 7] | IC50 [3, 7] [µM] | AUC [4] | IC50 [4] [µM] | AUC [5] | IC50 [5] [µM]
SNU-423 (liver, adherent) | 0.661 | 0.019 | 0.439 | 0.106 | 0.983 | > 0.5 | 0.947 | > 10 | 0.919 | > 10.2 | 0.863 | > 2.56
SNU-449 (liver, adherent) | 0.902 | > 0.1 | 0.787 | 1.23 | 0.947 | > 0.5 | 0.882 | > 10 | 0.98 | > 10.2 | 0.893 | > 2.56
SNU-C1 (large intestine, suspension) | 0.797 | 0.075 | 0.867 | > 2.56 | 0.973 | > 0.5 | 0.943 | > 10 | 0.978 | > 10.2 | 0.902 | > 2.56
SR (lymphoid neoplasm, suspension) | 0.212 | 0.001 | 0.127 | 0.0126 | 0.988 | > 0.5 | 0.938 | > 10 | 0.58 | 1.03 | 0.928 | > 2.56
ST486 (Burkitt lymphoma, suspension) | 0.624 | 0.0131 | 0.214 | 0.0263 | 0.99 | > 0.5 | 0.989 | > 10 | 0.75 | 3.01 | 0.862 | 1.79
SU8686 (pancreas, adherent) | 0.67 | 0.0198 | 0.847 | 2.24 | 0.94 | > 0.5 | 0.982 | > 10 | 0.959 | > 10.2 | 0.942 | > 2.56
SU-DHL-4 (B-cell lymphoma, suspension) | 0.918 | 0.0732 | 0.271 | 0.0446 | 0.997 | > 0.5 | 0.997 | > 10 | 0.947 | 9.71 | 0.997 | > 2.56
SU-DHL-5 (B-cell lymphoma, suspension) | 0.273 | 0.00172 | 0.2 | 0.0284 | 0.988 | > 0.5 | 0.547 | 0.812 | 0.844 | 4.8 | 0.897 | 1.78
SU-DHL-6 (B-cell lymphoma, suspension) | 0.303 | 0.00206 | 0.246 | 0.038 | 0.984 | > 0.5 | 0.995 | > 10 | 0.833 | 4.39 | 0.901 | 1.79
SU-DHL-16 (B-cell lymphoma, suspension) | 0.443 | 0.00454 | 0.162 | 0.0232 | 0.996 | > 0.5 | 0.993 | > 10 | 0.852 | 4.8 | 0.848 | 1.17
SUIT-2 (pancreas, adherent) | 0.828 | 0.0655 | 0.33 | 0.0523 | 0.938 | > 0.5 | 0.958 | > 10 | 0.952 | > 10.2 | 0.919 | > 2.56
SUP-B15 (lymphoblastic leukaemia, suspension) | 0.547 | 0.00835 | 0.432 | 0.105 | 0.986 | > 0.5 |  |  | 0.833 | 6.22 | 0.893 | > 2.56
SUP-HD1 (Hodgkin lymphoma, suspension) | 0.507 | 0.00651 | 0.324 | 0.0529 | 0.979 | > 0.5 | 0.984 | > 10 | 0.79 | 4.31 | 0.903 | > 2.56
SUP-M2 (anaplastic large cell lymphoma, suspension) | 0.152 | 0.000793 | 0.237 | 0.0353 | 0.993 | > 0.5 | 0.993 | > 10 | 0.647 | 1.47 | 0.943 | > 2.56
SUP-T1 (T-cell lymphoblastic leukaemia, suspension) | 0.863 | 0.074 | 0.332 | 0.0573 | 0.989 | > 0.5 | 0.989 | > 10 | 0.873 | 8.31 | 0.937 | > 2.56
SW13 (adrenal gland, adherent) | 0.501 | 0.00629 | 0.986 | > 2.56 | 0.756 | 0.172 | 0.631 | 1.44 | 0.983 | > 10.2 | 0.923 | > 2.56
SW48 (large intestine, adherent) | 0.495 | 0.00606 | 0.296 | 0.0428 | 0.815 | 0.272 | 0.839 | 6.81 | 0.932 | > 10.2 | 0.809 | 1.32
SW626 (ovary, adherent) | 0.69 | 0.0237 | 0.685 | 0.584 | 0.966 | > 0.5 | 0.97 | > 10 | 0.885 | > 10.2 | 0.926 | > 2.56
SW684 (fibrosarcoma, adherent) | 0.797 | 0.075 | 0.982 | > 2.56 | 0.95 | > 0.5 | 0.978 | > 10 | 0.976 | > 10.2 | 0.882 | > 2.56
SW756 (cervix, adherent) | 0.636 | 0.016 | 0.928 | > 2.56 | 0.962 | > 0.5 | 0.983 | > 10 | 0.961 | > 10.2 | 0.972 | > 2.56
SW780 (bladder, adherent) | 0.385 | 0.00293 | 0.969 | > 2.56 | 0.973 | > 0.5 | 0.887 | > 10 | 0.973 | > 10.2 | 0.879 | > 2.56
SW948 (large intestine, adherent) | 0.822 | 0.0987 | 0.677 | 0.631 | 0.982 | > 0.5 | 0.95 | > 10 | 0.919 | > 10.2 | 0.946 | > 2.56
